# In the supplement of paper PMC8728848:
# This is one part of the list.
# Key:
# Test in all cases: glycan array binding signal (z-score within array); higher = stronger binding
# Conditions in all cases: glycan notation: IUPAC condensed, linker removed
# [1] = target: Gal(b1-4)GlcNAc(b1-3)Gal(b1-4)GlcNAc(b1-3)Gal(b1-4)GlcNAc
# Procedure, shortened: (§1)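 Arrays were curated from the Consortium for Functional Glycomics database, 3228 in total, and kept only where the protein sequence was available. Binding is expressed as a within-array Z-score. This score was averaged across arrays of the same protein sequence at different concentrations or buffers and across linkers, and negative values can be read as non-binding.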
# [2] = target: Gal(b1-4)GlcNAc(b1-3)Gal(b1-4)GlcNAc(b1-3)Gal(b1-4)GlcNAc(b1-2)Man(a1-3)[Gal(b1-4)GlcNAc(b1-3)Gal(b1-4)GlcNAc(b1-3)Gal(b1-4)GlcNAc(b1-2)Man(a1-6)]Man(b1-4)GlcNAc(b1-4)GlcNAc
# Procedure, shortened: as §1
# [3] = target: Gal(b1-4)GlcNAc(b1-3)Gal(b1-4)GlcNAc(b1-3)Gal(b1-4)GlcNAc(b1-2)Man(a1-3)[Gal(b1-4)GlcNAc(b1-3)Gal(b1-4)GlcNAc(b1-3)Gal(b1-4)GlcNAc(b1-2)Man(a1-6)]Man(b1-4)GlcNAc(b1-4)[Fuc(a1-6)]GlcNAc
# Procedure, shortened: as §1
# [4] = target: Gal(b1-4)GlcNAc(b1-3)Gal(b1-4)GlcNAc(b1-3)Gal(b1-4)GlcNAc(b1-2)[Gal(b1-4)GlcNAc(b1-3)Gal(b1-4)GlcNAc(b1-3)Gal(b1-4)GlcNAc(b1-6)]Man(a1-6)[Gal(b1-4)GlcNAc(b1-3)Gal(b1-4)GlcNAc(b1-3)Gal(b1-4)GlcNAc(b1-2)Man(a1-3)]Man(b1-4)GlcNAc(b1-4)[Fuc(a1-6)]GlcNAc
# Procedure, shortened: as §1
# [5] = target: Gal(b1-4)GlcNAc(b1-3)Gal(b1-4)GlcNAc(b1-3)Gal(b1-4)GlcNAc(b1-3)Gal(b1-4)GlcNAc(b1-2)Man(a1-3)[Gal(b1-4)GlcNAc(b1-3)Gal(b1-4)GlcNAc(b1-3)Gal(b1-4)GlcNAc(b1-3)Gal(b1-4)GlcNAc(b1-2)Man(a1-6)]Man(b1-4)GlcNAc(b1-4)GlcNAc
# Procedure, shortened: as §1
# [6] = target: Gal(b1-4)GlcNAc(b1-3)Gal(b1-4)GlcNAc(b1-3)Gal(b1-4)GlcNAc(b1-3)Gal(b1-4)GlcNAc(b1-2)Man(a1-3)[Gal(b1-4)GlcNAc(b1-3)Gal(b1-4)GlcNAc(b1-3)Gal(b1-4)GlcNAc(b1-3)Gal(b1-4)GlcNAc(b1-2)Man(a1-6)]Man(b1-4)GlcNAc(b1-4)[Fuc(a1-6)]GlcNAc
# Procedure, shortened: as §1
# [7] = target: Gal(b1-4)GlcNAc(b1-3)Gal(b1-4)GlcNAc(b1-3)Gal(b1-4)GlcNAc(b1-3)Gal(b1-4)GlcNAc(b1-2)[Gal(b1-4)GlcNAc(b1-3)Gal(b1-4)GlcNAc(b1-3)Gal(b1-4)GlcNAc(b1-3)Gal(b1-4)GlcNAc(b1-6)]Man(a1-6)[Gal(b1-4)GlcNAc(b1-3)Gal(b1-4)GlcNAc(b1-3)Gal(b1-4)GlcNAc(b1-3)Gal(b1-4)GlcNAc(b1-2)Man(a1-3)]Man(b1-4)GlcNAc(b1-4)[Fuc(a1-6)]GlcNAc
# Procedure, shortened: as §1
# [8] = target: Gal(b1-4)GlcNAc(b1-3)Gal(b1-4)GlcNAc(b1-3)Gal(b1-4)GlcNAc(b1-3)Gal(b1-4)GlcNAc(b1-3)Gal(b1-4)GlcNAc(b1-2)Man(a1-3)[Gal(b1-4)GlcNAc(b1-3)Gal(b1-4)GlcNAc(b1-3)Gal(b1-4)GlcNAc(b1-3)Gal(b1-4)GlcNAc(b1-3)Gal(b1-4)GlcNAc(b1-2)Man(a1-6)]Man(b1-4)GlcNAc(b1-4)GlcNAc
# Procedure, shortened: as §1
# [9] = target: Gal(b1-4)GlcNAc(b1-3)Gal(b1-4)GlcNAc(b1-3)Gal(b1-4)GlcNAc(b1-3)Gal(b1-4)GlcNAc(b1-3)Gal(b1-4)GlcNAc(b1-2)Man(a1-3)[Gal(b1-4)GlcNAc(b1-3)Gal(b1-4)GlcNAc(b1-3)Gal(b1-4)GlcNAc(b1-3)Gal(b1-4)GlcNAc(b1-3)Gal(b1-4)GlcNAc(b1-2)Man(a1-6)]Man(b1-4)GlcNAc(b1-4)[Fuc(a1-6)]GlcNAc
# Procedure, shortened: as §1
# [10] = target: Gal(b1-4)GlcNAc(b1-3)Gal(b1-4)GlcNAc(b1-3)Gal(b1-4)GlcNAc(b1-3)Gal(b1-4)GlcNAc(b1-3)Gal(b1-4)GlcNAc(b1-2)[Gal(b1-4)GlcNAc(b1-3)Gal(b1-4)GlcNAc(b1-3)Gal(b1-4)GlcNAc(b1-3)Gal(b1-4)GlcNAc(b1-3)Gal(b1-4)GlcNAc(b1-6)]Man(a1-6)[Gal(b1-4)GlcNAc(b1-3)Gal(b1-4)GlcNAc(b1-3)Gal(b1-4)GlcNAc(b1-3)Gal(b1-4)GlcNAc(b1-3)Gal(b1-4)GlcNAc(b1-2)Man(a1-3)]Man(b1-4)GlcNAc(b1-4)[Fuc(a1-6)]GlcNAc
# Procedure, shortened: as §1
# [11] = target: Gal(b1-4)GlcNAc(b1-3)Gal(b1-4)GlcNAc(b1-3)Gal(b1-4)GlcNAc(b1-3)Gal(b1-4)GlcNAc(b1-3)Gal(b1-4)GlcNAc(b1-3)Gal(b1-4)GlcNAc(b1-2)Man(a1-3)[Gal(b1-4)GlcNAc(b1-3)Gal(b1-4)GlcNAc(b1-3)Gal(b1-4)GlcNAc(b1-3)Gal(b1-4)GlcNAc(b1-3)Gal(b1-4)GlcNAc(b1-3)Gal(b1-4)GlcNAc(b1-2)Man(a1-6)]Man(b1-4)GlcNAc(b1-4)GlcNAc
# Procedure, shortened: as §1
# [12] = target: Gal(b1-4)GlcNAc(b1-3)Gal(b1-4)GlcNAc(b1-3)GalNAc
# Procedure, shortened: as §1
# [13] = target: Gal(b1-4)GlcNAc(b1-3)Gal(b1-4)GlcNAc(b1-3)[Gal(b1-4)GlcNAc(b1-3)Gal(b1-4)GlcNAc(b1-6)]GalNAc
# Procedure, shortened: as §1
# [14] = target: Gal(b1-4)GlcNAc(b1-3)Gal(b1-4)GlcNAc(b1-6)[Gal(b1-3)]GalNAc
# Procedure, shortened: as §1
# [15] = target: Gal(b1-4)GlcNAc(b1-3)Gal(b1-4)[Fuc(a1-3)GlcNAc(b1-6)]Gal(b1-4)Glc
# Procedure, shortened: as §1
# [16] = target: Gal(b1-4)GlcNAc(b1-3)Gal(b1-4)[Fuc(a1-3)]GlcNAc(b1-3)Gal(b1-4)[Fuc(a1-3)]GlcNAc
# Procedure, shortened: as §1
# [17] = target: Gal(b1-4)GlcNAc(b1-3)GalNAc
# Procedure, shortened: as §1
# [18] = target: Gal(b1-4)GlcNAc(b1-3)[Fuc(a1-3)GlcNAc(b1-6)]Gal(b1-4)Glc
# Procedure, shortened: as §1
# [19] = target: Gal(b1-4)GlcNAc(b1-3)[Gal(b1-4)GlcNAc(b1-6)]Gal(b1-4)GlcNAc
# Procedure, shortened: as §1
# [20] = target: Gal(b1-4)GlcNAc(b1-3)[Gal(b1-4)GlcNAc(b1-6)]GalNAc
# Procedure, shortened: as §1
# [21] = target: Gal(b1-4)GlcNAc(b1-3)[GlcNAc(b1-6)]Gal(b1-4)GlcNAc
# Procedure, shortened: as §1
# [22] = target: Gal(b1-4)GlcNAc(b1-6)Gal(b1-4)GlcNAc
# Procedure, shortened: as §1
# [23] = target: Gal(b1-4)GlcNAc(b1-6)GalNAc
# Procedure, shortened: as §1
# [24] = target: Gal(b1-4)GlcNAc(b1-6)[Gal(b1-3)]GalNAc
# Procedure, shortened: as §1
# [25] = target: Gal(b1-4)GlcNAc(b1-6)[Gal(b1-4)GlcNAc(b1-3)]GalNAc
# Procedure, shortened: as §1
# Gal(b1-4)GlcNAc6P = target: Gal(b1-4)GlcNAc6P
# Procedure, shortened: as §1
# Gal(b1-6)Gal = target: Gal(b1-6)Gal
# Procedure, shortened: as §1
# Gal3S(b1-3)GalNAc = target: Gal3S(b1-3)GalNAc
# Procedure, shortened: as §1
# Gal3S(b1-3)GlcNAc = target: Gal3S(b1-3)GlcNAc
# Procedure, shortened: as §1
# [26] = target: Gal3S(b1-3)[Fuc(a1-4)]GlcNAc
# Procedure, shortened: as §1
# Gal3S(b1-4)Glc = target: Gal3S(b1-4)Glc
# Procedure, shortened: as §1
# Gal3S(b1-4)Glc6S = target: Gal3S(b1-4)Glc6S
# Procedure, shortened: as §1
# Gal3S(b1-4)GlcNAc = target: Gal3S(b1-4)GlcNAc
# Procedure, shortened: as §1
# Gal3S(b1-4)GlcNAc6S = target: Gal3S(b1-4)GlcNAc6S
# Procedure, shortened: as §1
# [27] = target: Gal3S(b1-4)[Fuc(a1-3)]Glc
# Procedure, shortened: as §1
# [28] = target: Gal3S(b1-4)[Fuc(a1-3)]Glc6S
# Procedure, shortened: as §1
# [29] = target: Gal3S(b1-4)[Fuc(a1-3)]GlcNAc
# Procedure, shortened: as §1
binder,measurement,setting,value
PpFlo2 (Pichia pastoris) (protein) MGSSHHHHHHSSGLVPRGSHMDDSGNGDNSDTAYGCDITTNAVDGFDATIYQYNANDLRLIRDPTFMSTGYLGRNVLNKISGVTVPGFNIWNPSSRTATVYGVKNVNYYNMVLELKGYFKADVSGDYKLTLSHIDDSSMLFFGKETAFKCCDAGSIPLNEAPTDYSLFTIKPSNQVNSEVISATQYLEAGKYYPVRIVFVNALERARFDFKLTIPSGAVLDDFQNYIYQFGDLDENSCHE,glycan array binding signal (z-score),[1],-0.25
same,glycan array binding signal (z-score),[2],-0.157
same,glycan array binding signal (z-score),[3],-0.237
same,glycan array binding signal (z-score),[4],-0.261
same,glycan array binding signal (z-score),[5],-0.228
same,glycan array binding signal (z-score),[6],-0.243
same,glycan array binding signal (z-score),[7],-0.253
same,glycan array binding signal (z-score),[8],-0.112
same,glycan array binding signal (z-score),[9],-0.24
same,glycan array binding signal (z-score),[10],-0.202
same,glycan array binding signal (z-score),[11],-0.187
same,glycan array binding signal (z-score),[12],0.339
same,glycan array binding signal (z-score),[13],-0.096
same,glycan array binding signal (z-score),[14],-0.267
same,glycan array binding signal (z-score),[15],-0.148
same,glycan array binding signal (z-score),[16],0.409
same,glycan array binding signal (z-score),[17],-0.28
same,glycan array binding signal (z-score),[18],-0.175
same,glycan array binding signal (z-score),[19],-0.271
same,glycan array binding signal (z-score),[20],0.061
same,glycan array binding signal (z-score),[21],0.396
same,glycan array binding signal (z-score),[22],-0.297
same,glycan array binding signal (z-score),[23],-0.175
same,glycan array binding signal (z-score),[24],0.004
same,glycan array binding signal (z-score),[25],-0.188
same,glycan array binding signal (z-score),Gal(b1-4)GlcNAc6P,-0.272
same,glycan array binding signal (z-score),Gal(b1-6)Gal,-0.299
same,glycan array binding signal (z-score),Gal3S(b1-3)GalNAc,-0.298
same,glycan array binding signal (z-score),Gal3S(b1-3)GlcNAc,-0.289
same,glycan array binding signal (z-score),[26],-0.286
same,glycan array binding signal (z-score),Gal3S(b1-4)Glc,-0.303
same,glycan array binding signal (z-score),Gal3S(b1-4)Glc6S,-0.25
same,glycan array binding signal (z-score),Gal3S(b1-4)GlcNAc,-0.295
same,glycan array binding signal (z-score),Gal3S(b1-4)GlcNAc6S,-0.354
same,glycan array binding signal (z-score),[27],-0.35
same,glycan array binding signal (z-score),[28],-0.288
same,glycan array binding signal (z-score),[29],-0.274
